{"source": "IntAct's records for PubMed 20859254", "parents": {"B1": {"name": "Melatonin receptor type 1A (Homo sapiens), P48039 (parent)", "chain": "MQGNGSALPNASQPVLRGDGARPSWLASALACVLIFTIVVDILGNLLVILSVYRNKKLRNAGNIFVVSLAVADLVVAIYPYPLVLMSIFNNGWNLGYLHCQVSGFLMGLSVIGSIFNITGIAINRYCYICHSLKYDKLYSSKNSLCYVLLIWLLTLAAVLPNLRAGTLQYDPRIYSCTFAQSVSSAYTIAVVVFHFLVPMIIVIFCYLRIWILVLQVRQRVKPDRKPKLKPQDFRNFVTMFVVFVLFAICWAPLNFIGLAVASDPASMVPRIPEWLFVASYYMAYFNSCLNAIIYGLLNQNFRKEYRRIIVSLCTARVFFVDSSNDVADRVKWKPSPLMTNNNVVKVDSV", "partner": "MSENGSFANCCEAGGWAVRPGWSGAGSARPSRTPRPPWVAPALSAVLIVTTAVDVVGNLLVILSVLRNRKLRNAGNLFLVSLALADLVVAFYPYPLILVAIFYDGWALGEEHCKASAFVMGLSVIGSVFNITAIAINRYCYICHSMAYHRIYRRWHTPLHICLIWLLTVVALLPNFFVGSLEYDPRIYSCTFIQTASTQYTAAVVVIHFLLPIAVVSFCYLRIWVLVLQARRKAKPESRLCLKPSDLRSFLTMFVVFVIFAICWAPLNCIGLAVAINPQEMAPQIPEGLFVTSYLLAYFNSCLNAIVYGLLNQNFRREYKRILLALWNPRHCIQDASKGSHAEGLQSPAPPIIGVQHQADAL"}}}
{"variants_of": "B1", "settings": "with mtr1b_human MTNR1B"}
{"variant": "MQGNGSALPNASQPVLRGDGARPSWLASALACVLIFTIVVDILGNLLVILSVYRNKKLRNAGNIFVVSLAVADLVVAIYPYPLVLMSIFNNGWNLGYLHCQVSGFLMGLSVIGSIFNITGIAINRYCYICHSLKYDKLYSSKNSLCYVLLIWLLTLAAVLPNLRAGTLQYDPRIYSCTFAQSVSSAYTIAVVVFHFLVPMIIVIFCYLRIWILVLQVRQRVKPDRKPKLKPQDFRNFVTMFVVFVLFAICWCPLNFIGLAVASDPASMVPRIPEWLFVASYYMAYFNSCLNAIIYGLLNQNFRKEYRRIIVSLCTARVFFVDSSNDVADRVKWKPSPLMTNNNVVKVDSV", "note": "[A252C]", "effect of a mutation on the interaction": "increasing interaction"}
{"variant": "MQGNGSALPNASQPVLRGDGARPSWLASALACVLIFTIVVDILGNLLVILSVYRNKKLRNAGNIFVVSLAVADLVVAIYPYPLVLMSIFNNGWNLGYLHCQVSGFLMGLSVIGSIFNITGIAINRYCYICHSLKYDKLYSSKNSLCYVLLIWLLTLAAVLPNLRAGTLQYDPRIYSCTFAQSVSSAYTIAVVVFHFLVPMIIVIFCYLRIWILVLQVRQRVKPDRKPKLKPQDFRNFVTMFVVFVLFAICWAPLNFITLAVASDPASMVPRIPEWLFVASYYMAYFNSCLNAIIYGLLNQNFRKEYRRIIVSLCTARVFFVDSSNDVADRVKWKPSPLMTNNNVVKVDSV", "note": "[G258T]", "effect of a mutation on the interaction": "increasing interaction"}
